# Paper PMC6664820, “Novel natural and synthetic inhibitors of solute carriers SGLT1 and SGLT2” (Pharmacology Research & Perspectives, 2019)
# Hit rate of the full screen: of about 1,900 compounds, about 40 (2%) showed an effect of 50% or more. The list shows a part of the results.
# Biological target: human SGLT1 (hSGLT1) (human, UniProt P13866)
# Test: primary screen, percent of control activity; higher = less effect of the substance
# Parameters: single well
# Settings: 50 µM
# Method in brief: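 Single-point screen at 50 µmol/L in CHO-hSGLT1 cells, with 160 µmol/L 1-NBD-glucose in glucose-free DMEM for 90 min at 37°C. Fluorescence from isopropanol extracts was calibrated, and CHO wild-type uptake was subtracted. Data are percent of uptake without compound.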
row,Structure (SMILES),NORMALIZED SGLT1 ACTIVITY (%)
1,Cc1cc(=O)oc2cc(O)cc(O)c12,255
2,CC(=O)O[C@]1(C(C)=O)CC[C@H]2[C@@H]3C=C(Cl)C4=CC(=O)CC[C@]4(C)[C@H]3CC[C@@]21C,88
3,CCCNC(=O)NS(=O)(=O)c1ccc(Cl)cc1,102
4,COC(=O)c1cc(OC)c(=O)c2c(OC)c(OC)ccc2c1,257
5,CO[C@H]1/C=C/O[C@@]2(C)Oc3c(C)c(O)c4c(O)c(c5c(nc6cc(C)ccn65)c4c3C2=O)NC(=O)/C(C)=C\C=C\[C@H](C)[C@H](O)[C@@H](C)[C@@H](O)[C@@H](C)[C@H](OC(C)=O)[C@@H]1C,127
6,Cl.Cl.NNCc1cccc(O)c1,149
7,Cn1nnnc1SCC1=C(C(=O)[O-])N2C(=O)C(NC(=O)C(O)c3ccccc3)C2SC1.[Na+] (stereo not shown),150
8,Cc1ccc(S(=O)(=O)NC(=O)NN2CCCCCC2)cc1,97
9,CC(C)c1ccc2c(c1O)CC[C@H]1C3=C(CC[C@]21C)C(=O)OC3,118
10,Nc1ccc(S(=O)(=O)Nc2ncccn2)cc1,116
11,CC(=O)O[C@@H]1CC2C(C)(C)C(=O)CC[C@]2(C)C2CC[C@]3(C)C(=CC(=O)O[C@H]3c3ccoc3)[C@@]21C (stereo partly shown),250
12,CCC[C@@H]1C[C@@H](C(=O)N[C@H]([C@H]2O[C@H](SC)[C@H](O)[C@@H](O)[C@H]2O)[C@H](C)O)N(C)C1.Cl,123
13,CC(C(=O)O)c1cccc(C(=O)c2ccccc2)c1 (stereo not shown),156
14,CCC(=O)OCC(=O)[C@@]1(OC(=O)CC)[C@@H](C)CC2C3CCC4=CC(=O)C=C[C@]4(C)C3(F)[C@@H](O)C[C@@]21C (stereo partly shown),126
15,Nc1ccc(S(=O)(=O)Nc2ccccn2)cc1,97
16,CN(CCOc1ccc(CC2SC(=O)NC2=O)cc1)c1ccccn1.O=C(O)/C=C\C(=O)O (stereo not shown),246
17,C[C@]12CC[C@@H](O)C[C@H]1CCc1ccccc12,172
18,CC(C)OC(=O)C(C)(C)Oc1ccc(C(=O)c2ccc(Cl)cc2)cc1,59
19,CC(C)CC(NC(=O)OCC1c2ccccc2-c2ccccc21)C(=O)O (stereo in doubt),223
20,CCCCCC1C(=O)CCC1CC(=O)OC (stereo not shown),109
21,O=C(O)CCNC(=O)c1ccccc1,105
22,COc1cc2c3cc1Oc1cc(ccc1O)C[C@@H]1c4c(cc(OC)c(O)c4Oc4ccc(cc4)C[C@@H]3N(C)CC2)CC[N+]1(C)C.[Cl-],96

row,Structure (SMILES),NORMALIZED SGLT1 ACTIVITY (%)
1,COc1cc(O)c(C(C)=O)c(OC)c1,107
2,CCCCC/C=C\C/C=C\C/C=C\C/C=C\CCCC(=O)O,182
3,Oc1c(Cl)cc(Cl)c2cccnc12,48
4,CN(C)CCC=C1c2ccccc2C=Cc2ccccc21.Cl,50
5,CC[C@H]1OC(=O)[C@H](C)[C@@H](O[C@H]2C[C@@](C)(OC)[C@@H](O)[C@H](C)O2)[C@H](C)[C@@H](O[C@@H]2O[C@H](C)C[C@H](N(C)C)[C@H]2O)[C@](C)(O)C[C@@H](C)/C(=N\OCOCCOC)[C@H](C)[C@@H](O)[C@]1(C)O,93
6,Cc1coc2ccccc2c1=O,118
7,CC(=O)OCC(=O)[C@@]1(O)CCC2C3CC[C@@H]4C[C@H](O)CC[C@]4(C)C3C(=O)C[C@@]21C (stereo partly shown),85
8,C[C@@](Cc1ccc(O)c(O)c1)(NN)C(=O)O,105
9,CC12CCC3C(CC3(C)C)C(C)(CCC1=O)O2 (stereo not shown),105
10,CC(=O)N(O)CCCCCNC(=O)CCC(=O)N(O)CCCCCNC(=O)CCC(=O)N(O)CCCCCN.CS(=O)(=O)O,94
11,Nc1ccccc1C(=O)CC(N)C(=O)O (stereo not shown),103
12,COc1cc(O)cc(OC)c1OC,127
13,Cl.Nc1c(Br)cc(Br)cc1CNC1CCC(O)CC1 (stereo not shown),99
14,CO[C@H]1C[C@H](O[C@@H]2/C(C)=C/C[C@@H]3C[C@@H](C[C@]4(CC[C@H](C)[C@@H](C5CCCCC5)O4)O3)OC(=O)[C@@H]3C=C(C)/C(=N/O)[C@H]4OC/C(=C\C=C\[C@@H]2C)[C@]43O)O[C@@H](C)[C@@H]1O,111
15,Cn1c(=O)[nH]c(=O)c2nc[nH]c21,132
16,C=C1C2CC[C@H]3[C@]4(C)C[C@H](OC5OC(CO)C(OS(=O)(=O)[O-])C(OS(=O)(=O)[O-])C5OC(=O)CC(C)C)C[C@@H](C(=O)O)[C@H]4CC[C@]3(C2)[C@H]1O.[K+].[K+] (stereo partly shown),94
17,C[C@]12CCC3c4ccc(OC(=O)c5ccccc5)cc4CCC3C1CCC2=O (stereo partly shown),105
18,COCCc1ccc(OCC(O)CNC(C)C)cc1.O=C(O)C(O)C(O)C(=O)O (stereo not shown),93
19,NC(=O)c1ccc[n+]([C@@H]2O[C@H](COP(=O)([O-])OP(=O)(O)OC[C@H]3O[C@@H](n4cnc5c(N)ncnc54)[C@H](O)[C@@H]3O)[C@@H](O)[C@H]2O)c1,98
20,C[C@H]1[C@H](C)CC[C@]2(C(=O)O)CC[C@]3(C)C(=CC[C@@H]4[C@@]5(C)C[C@@H](O)[C@H](O)[C@@](C)(CO)[C@@H]5[C@H](O)C[C@]43C)[C@H]12,105
21,COc1cc(O)c2c(c1)C(=O)c1cc(C)cc(O)c1C2=O,102
22,CNC(=O)CSP(=S)(OC)OC,92

row,Structure (SMILES),NORMALIZED SGLT1 ACTIVITY (%)
1,CCC(C)C(NC)C(=O)O (stereo not shown),105
2,N[C@@H](Cc1ccc(O)c(O)c1)C(=O)O,129
3,CCCCC1=NC2(CCCC2)C(=O)N1Cc1ccc(-c2ccccc2-c2nnn[nH]2)cc1,117
4,CN(C)CCc1c[nH]c2ccc(CS(=O)(=O)N3CCCC3)cc12,103
5,CCNc1nc(Cl)nc(NC(C)C)n1,154
6,COc1ccc(OC)c(C(O)C(C)N)c1.Cl (stereo not shown),98
7,CN(C)CCCO[C@@H]1[C@H]2OC(C)(C)O[C@H]2O[C@@H]1[C@H](O)CO.Cl,88
8,CC(Cc1cccc(C(F)(F)F)c1)NCCOC(=O)c1ccccc1.Cl (stereo not shown),73
9,CCOc1nc2cccc(C(=O)OC(C)OC(=O)OC3CCCCC3)c2n1Cc1ccc(-c2ccccc2-c2nnn[nH]2)cc1 (stereo not shown),36
10,COc1c2ccoc2cc2oc(=O)ccc12,180
11,CN1CCCC(n2nc(Cc3ccc(Cl)cc3)c3ccccc3c2=O)CC1.Cl (stereo not shown),72
12,CC1(C)O[C@]2(C)CC[C@H]1CC2,132
13,O=C(NCO)c1cccnc1,90
14,C=CC(C)(O)CC/C=C(\C)CCC=C(C)C (stereo not shown),127
15,Cc1c(O)c(O)cc2c1CC=C1[C@@]2(C)CC[C@@]2(C)C3C[C@](C)(C(=O)O)CC[C@]3(C)CC[C@]12C (stereo partly shown),378
16,CCN(CC)CCNC(=O)c1cc(Br)c(N)cc1OC,91
17,C[C@H]1C(=O)CC[C@@H]2[C@]1(C)CC[C@H]1[C@@]2(C)CC[C@@]2(C)[C@@H]3CC(C)(C)CC[C@]3(C)CC[C@]12C,102
18,C=C1CCC2C(CC2(C)C)C(=C)CC/C1=N/O (stereo not shown),77
19,O=C(O)c1cccc(O)c1O,128
20,C[C@@H]1O[C@@H](O[C@H]2[C@H](Oc3cc(O)c4c(=O)cc(-c5ccc(O)cc5)oc4c3)O[C@H](CO)[C@@H](O)[C@@H]2O)[C@H](O)[C@H](O)[C@H]1O,160
21,CC(C)CCCC(C)C1CCC2C3=CC[C@H]4C[C@@H](O)CC[C@]4(C)C3CC[C@@]21C (stereo partly shown),149
22,CC(=O)O[C@H]1CCC2(C)C(=CCC3C2CCC2(C)C3CC3OC4(CCC(C)CO4)[C@@H](C)C32)C1 (stereo partly shown),109

row,Structure (SMILES),NORMALIZED SGLT1 ACTIVITY (%)
1,CCn1nc(C(=O)O)c(=O)c2cc3c(cc21)OCO3,122
2,CCn1cc(C(=O)O)c(=O)c2cc(F)c(N3CCN(C)CC3)cc21.CS(=O)(=O)O,163
3,CC(=O)Oc1cc2c(c(C)c1OC(C)=O)CC=C1[C@@]2(C)CC[C@@]2(C)C3C[C@](C)(C(=O)O)CC[C@]3(C)CC[C@]12C (stereo partly shown),149
4,C=CCCCCCCCCCCC/C=C/C(O)COC(C)=O (stereo not shown),118
5,NCCCS(=O)(=O)O,120
6,O=C(O)/C=C/C(=O)O.O=C1CCCN1CC#CCN1CCCC1,145
7,C/C=C(/C)C(=O)O[C@H]1CC[C@@]2(C)[C@@H]3CC[C@H]4[C@]5(O)C[C@H](O)[C@@]6(O)[C@@H](CN7C[C@@H](C)CC[C@H]7[C@@]6(C)O)[C@]5(O)C[C@@]42O[C@]13O,86
8,Cc1cc(N)c2ccccc2[n+]1CCCCCCCCCC[n+]1c(C)cc(N)c2ccccc21.[Cl-].[Cl-],105
9,CS(=O)(=O)Nc1ccc([N+](=O)[O-])cc1Oc1ccccc1,265
10,COc1ccc2c(=O)ccoc2c1,223
11,CN(C)CCCN1c2ccccc2Sc2ccc(Cl)cc21,60
12,CSCCC(NC=O)C(=O)NC(C)C(=O)O (stereo not shown),110
13,O=C1CN(/N=C/c2ccc(-c3ccc([N+](=O)[O-])cc3)o2)C(=O)[N-]1.[Na+],103
14,O=C1O[C@H]([C@@H](O)CO)C(O)=C1O,103
15,COc1cc(OC)c2ccc(=O)oc2c1,193
16,CCn1cc(C(=O)O)c(=O)c2cnc(N3CCCC3)nc21,193
17,NS(=O)(=O)c1cc2c(cc1C(F)(F)F)NCNS2(=O)=O,94
18,CC(C)(C)NCC(O)c1cc(O)cc(O)c1.O=S(=O)(O)O (stereo not shown),113
19,CNCCC=C1c2ccccc2CCc2ccccc21.Cl,103
20,COc1c2ccoc2cc2oc(C)cc(=O)c12,165
21,Cl.NCCCCCCNS(=O)(=O)c1cccc2c(Cl)cccc12,186
22,COC(=O)C[C@H]1C(C)(C)[C@@H](O)[C@@H]2CC3=C4CC(O)O[C@@H](c5ccoc5)[C@]4(C)CCC3[C@@]1(C)C2=O (stereo partly shown),127
